Data published in the supplement of paper PMC8728848.
Some of the results follow.

Key:
Experiment in all cases: glycan array binding signal (z-score within array); higher = stronger binding
Conditions in all cases: glycan notation: IUPAC condensed, linker removed
[1] = biological target: Neu5Ac(a2-3)Gal(b1-3)GalNAc(b1-4)[Neu5Ac(a2-8)Neu5Ac(a2-3)]Gal(b1-4)Glc
Outline: (§1)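 Glycan array data were curated from 3228 arrays in the Consortium for Functional Glycomics database and kept only where the protein sequence was available. Glycan names were converted to IUPAC-condensed notation, and columns mapping to the same glycan were averaged. The binding signal is a within-array Z-score, averaged across arrays of the same protein sequence at different concentrations or buffers and across linkers. Negative Z-scores can be read as non-binding.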

[2] = biological target: Neu5Ac(a2-3)Gal(b1-3)GalNAc6S
Outline: as §1

[3] = biological target: Neu5Ac(a2-3)Gal(b1-3)GlcNAc
Outline: as §1

[4] = biological target: Neu5Ac(a2-3)Gal(b1-3)GlcNAc(b1-2)Man(a1-3)[Neu5Ac(a2-3)Gal(b1-3)GlcNAc(b1-2)Man(a1-6)]Man(b1-4)GlcNAc(b1-4)GlcNAc
Outline: as §1

[5] = biological target: Neu5Ac(a2-3)Gal(b1-3)GlcNAc(b1-3)Gal(b1-3)GlcNAc
Outline: as §1

[6] = biological target: Neu5Ac(a2-3)Gal(b1-3)GlcNAc(b1-3)Gal(b1-4)GlcNAc
Outline: as §1

[7] = biological target: Neu5Ac(a2-3)Gal(b1-3)GlcNAc(b1-3)GalNAc
Outline: as §1

[8] = biological target: Neu5Ac(a2-3)Gal(b1-3)GlcNAc6S
Outline: as §1

[9] = biological target: Neu5Ac(a2-3)Gal(b1-3)[Fuc(a1-4)]GlcNAc
Outline: as §1

[10] = biological target: Neu5Ac(a2-3)Gal(b1-3)[Fuc(a1-4)]GlcNAc(b1-3)Gal(b1-3)[Fuc(a1-4)]GlcNAc
Outline: as §1

[11] = biological target: Neu5Ac(a2-3)Gal(b1-3)[Fuc(a1-4)]GlcNAc(b1-3)Gal(b1-4)[Fuc(a1-3)]GlcNAc
Outline: as §1

[12] = biological target: Neu5Ac(a2-3)Gal(b1-3)[Neu5Ac(a2-3)Gal(b1-4)]GlcNAc
Outline: as §1

[13] = biological target: Neu5Ac(a2-3)Gal(b1-3)[Neu5Ac(a2-6)]GalNAc
Outline: as §1

Neu5Ac(a2-3)Gal(b1-4)Glc = biological target: Neu5Ac(a2-3)Gal(b1-4)Glc
Outline: as §1

[14] = biological target: Neu5Ac(a2-3)Gal(b1-4)GlcNAc
Outline: as §1

[15] = biological target: Neu5Ac(a2-3)Gal(b1-4)GlcNAc(b1-2)Man(a1-3)[GlcNAc(b1-2)Man(b1-4)GlcNAc(b1-2)Man(a1-6)]Man(b1-4)GlcNAc(b1-4)GlcNAc
Outline: as §1

[16] = biological target: Neu5Ac(a2-3)Gal(b1-4)GlcNAc(b1-2)Man(a1-3)[Neu5Ac(a2-6)Gal(b1-4)GlcNAc(b1-2)Man(a1-6)]Man(b1-4)GlcNAc(b1-4)GlcNAc
Outline: as §1

[17] = biological target: Neu5Ac(a2-3)Gal(b1-4)GlcNAc(b1-3)Gal
Outline: as §1

[18] = biological target: Neu5Ac(a2-3)Gal(b1-4)GlcNAc(b1-3)Gal(b1-3)GlcNAc
Outline: as §1

[19] = biological target: Neu5Ac(a2-3)Gal(b1-4)GlcNAc(b1-3)Gal(b1-4)GlcNAc
Outline: as §1

[20] = biological target: Neu5Ac(a2-3)Gal(b1-4)GlcNAc(b1-3)Gal(b1-4)GlcNAc(b1-3)Gal(b1-4)GlcNAc
Outline: as §1

[21] = biological target: Neu5Ac(a2-3)Gal(b1-4)GlcNAc(b1-3)Gal(b1-4)[Fuc(a1-3)]GlcNAc
Outline: as §1

[22] = biological target: Neu5Ac(a2-3)Gal(b1-4)GlcNAc(b1-3)GalNAc
Outline: as §1

[23] = biological target: Neu5Ac(a2-3)Gal(b1-4)GlcNAc(b1-6)[Gal(b1-3)]GalNAc
Outline: as §1

[24] = biological target: Neu5Ac(a2-3)Gal(b1-4)GlcNAc(b1-6)[Neu5Ac(a2-3)Gal(b1-3)]GalNAc
Outline: as §1

[25] = biological target: Neu5Ac(a2-3)Gal(b1-4)GlcNAc6S
Outline: as §1

[26] = biological target: Neu5Ac(a2-3)Gal(b1-4)[Fuc(a1-3)]GlcNAc
Outline: as §1

[27] = biological target: Neu5Ac(a2-3)Gal(b1-4)[Fuc(a1-3)]GlcNAc(b1-3)Gal
Outline: as §1

[28] = biological target: Neu5Ac(a2-3)Gal(b1-4)[Fuc(a1-3)]GlcNAc(b1-3)Gal(b1-4)GlcNAc
Outline: as §1

[29] = biological target: Neu5Ac(a2-3)Gal(b1-4)[Fuc(a1-3)]GlcNAc(b1-3)Gal(b1-4)[Fuc(a1-3)]GlcNAc(b1-3)Gal(b1-4)[Fuc(a1-3)]GlcNAc
Outline: as §1

[30] = biological target: Neu5Ac(a2-3)Gal(b1-4)[Fuc(a1-3)]GlcNAc(b1-3)GalNAc
Outline: as §1

[31] = biological target: Neu5Ac(a2-3)Gal(b1-4)[Fuc(a1-3)]GlcNAc(b1-6)[Gal(b1-3)]GalNAc
Outline: as §1

[32] = biological target: Neu5Ac(a2-3)Gal(b1-4)[Fuc(a1-3)]GlcNAc(b1-6)[Neu5Ac(a2-3)Gal(b1-3)]GalNAc
Outline: as §1

[33] = biological target: Neu5Ac(a2-3)Gal(b1-4)[Fuc(a1-3)]GlcNAc6S
Outline: as §1

[34] = biological target: Neu5Ac(a2-3)Gal6S(b1-4)GlcNAc
Outline: as §1

[35] = biological target: Neu5Ac(a2-3)Gal6S(b1-4)[Fuc(a1-3)]GlcNAc
Outline: as §1

Neu5Ac(a2-3)GalNAc = biological target: Neu5Ac(a2-3)GalNAc
Outline: as §1

B1: UEA-I (Ulex europaeus), P22972 (protein)
chain: SDDLSFKFKNFSQNGKDLSFQGDASVIETGVLQLNKVGNNLPDETGGIARYIAPIHIWNCNTGEVASFITSFSFFMETSANPKAATDGLTFFLAPPDSPLRRAGGYFGLFEDTKDNDSSYQTVAVEFDTIGSPVNFDDPGFPHIGIDVNRVKSINAERWNKRYGLNNVANVEIIYEASSKTLTASLTYPSDQTSISVTSIVDLKEILPEWVSVGFSGGTYIGRQATHEVLNWYFTSNLIN
- glycan array binding signal (z-score) [1]: -0.179
- glycan array binding signal (z-score) [2]: -0.177
- glycan array binding signal (z-score) [3]: -0.178
- glycan array binding signal (z-score) [4]: -0.183
- glycan array binding signal (z-score) [5]: -0.18
- glycan array binding signal (z-score) [6]: -0.182
- glycan array binding signal (z-score) [7]: -0.185
- glycan array binding signal (z-score) [8]: -0.174
- glycan array binding signal (z-score) [9]: -0.181
- glycan array binding signal (z-score) [10]: -0.17
- glycan array binding signal (z-score) [11]: -0.186
- glycan array binding signal (z-score) [12]: -0.187
- glycan array binding signal (z-score) [13]: -0.17
- glycan array binding signal (z-score) (Neu5Ac(a2-3)Gal(b1-4)Glc): -0.185
- glycan array binding signal (z-score) [14]: -0.181
- glycan array binding signal (z-score) [15]: -0.177
- glycan array binding signal (z-score) [16]: -0.178
- glycan array binding signal (z-score) [17]: -0.168
- glycan array binding signal (z-score) [18]: -0.178
- glycan array binding signal (z-score) [19]: -0.184
- glycan array binding signal (z-score) [20]: -0.183
- glycan array binding signal (z-score) [21]: -0.178
- glycan array binding signal (z-score) [22]: -0.178
- glycan array binding signal (z-score) [23]: -0.183
- glycan array binding signal (z-score) [24]: -0.179
- glycan array binding signal (z-score) [25]: -0.165
- glycan array binding signal (z-score) [26]: -0.177
- glycan array binding signal (z-score) [27]: -0.185
- glycan array binding signal (z-score) [28]: -0.175
- glycan array binding signal (z-score) [29]: -0.177
- glycan array binding signal (z-score) [30]: -0.147
- glycan array binding signal (z-score) [31]: -0.172
- glycan array binding signal (z-score) [32]: -0.177
- glycan array binding signal (z-score) [33]: -0.191
- glycan array binding signal (z-score) [34]: -0.178
- glycan array binding signal (z-score) [35]: -0.182
- glycan array binding signal (z-score) (Neu5Ac(a2-3)GalNAc): -0.177
